Reference: PMC4908412, “β-arrestin-1 contributes to brown fat function and directly interacts with PPARα and PPARγ” (Scientific Reports, 2016)

Experiments:
Experiment in all cases: BLI; Octet Red 96; 50 μg/ml biotinylated PPARα-LBD or PPARγ-LBD (or their mutants) immobilised on streptavidin biosensors; analyte β-arrestin-1, βarr1M or peptides in solution (single 2 μM or serial dilutions, β-arrestin-1 0.5–32 μM); 25 °C; 2:1 heterogeneous ligand model and steady-state analysis
Details in all cases: both partners purified
[1] = biological target: T1, PPARγ-ligand binding domain (amino acids 204–477) (human, UniProt P37231-2 204-477, biotinylated for biolayer interferometry; 15N-labeled for NMR)
T1 construct: The His tag is used for capture in the pulldown; also called PPARγ-LBD; wild-type PPARγ; source: E. coli BL21 (DE3)-CodonPlus, purified; not shown: His6, N-terminal, kept
T1 sequence (looked up): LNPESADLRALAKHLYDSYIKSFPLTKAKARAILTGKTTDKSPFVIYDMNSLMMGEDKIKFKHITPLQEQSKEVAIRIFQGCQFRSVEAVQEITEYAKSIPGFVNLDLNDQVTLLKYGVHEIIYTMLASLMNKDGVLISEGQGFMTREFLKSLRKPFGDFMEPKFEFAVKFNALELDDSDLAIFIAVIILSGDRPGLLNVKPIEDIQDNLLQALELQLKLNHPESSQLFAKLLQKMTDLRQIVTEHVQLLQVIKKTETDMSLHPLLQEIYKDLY

[2] = biological target: T2, PPARα-ligand binding domain (amino acids 196–468) (human, UniProt Q07869 196-468, biotinylated for biolayer interferometry; 15N-labeled for NMR)
T2 construct: The His tag is used for capture in the pulldown; also called PPARα-LBD; wild-type PPARα; source: E. coli BL21 (DE3)-CodonPlus, purified; not shown: His6, N-terminal, kept
T2 sequence (looked up): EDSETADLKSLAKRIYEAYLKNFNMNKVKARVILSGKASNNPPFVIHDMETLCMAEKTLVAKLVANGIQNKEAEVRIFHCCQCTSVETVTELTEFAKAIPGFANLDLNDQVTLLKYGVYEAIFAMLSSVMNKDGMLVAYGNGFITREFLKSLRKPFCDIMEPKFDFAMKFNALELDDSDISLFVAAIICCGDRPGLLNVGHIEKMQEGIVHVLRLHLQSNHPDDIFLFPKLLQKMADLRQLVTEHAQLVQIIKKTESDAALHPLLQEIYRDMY

[3] = biological target: T2, PPARα-ligand binding domain (amino …); remark: listed apart in the source
[4] = biological target: T1, PPARγ-ligand binding domain (amino …); remark: listed apart in the source

B1: β-arrestin-1 double mutant with L100A and L104A (natural protein)
chain: not shown
notes: β-arrestin-1 with L100A and L104A; also called βarr1M; source: purified
With B1 the maximum response [1] was 0.59 nm, the maximum response [2] was 0.46 nm and the “KD1 (2:1 HL model)” value [3] was 1.53 µM. The “KD2 (2:1 HL model)” value [3] was 1.76 µM, the “koff1 (2:1 HL model)” value [3] was 0.00281 S^−1 and the “koff2 (2:1 HL model)” value [3] was 0.269 S^−1. For the same binder, the “kon1 (2:1 HL model)” value [3] was 1840 M^−1S^−1, the “kon2 (2:1 HL model)” value [3] was 153000 M^−1S^−1 and the “KD1 (2:1 HL model)” value [4] was 2.97 µM. For the same binder, the “KD2 (2:1 HL model)” value [4] was 0.95 µM, the “koff1 (2:1 HL model)” value [4] was 0.742 S^−1 and the “koff2 (2:1 HL model)” value [4] was 0.00124 S^−1. The “kon1 (2:1 HL model)” value [4] was 250000 M^−1S^−1 and the “kon2 (2:1 HL model)” value [4] was 1300 M^−1S^−1.
